From the supplement of paper PMC8728848
The list shows a part of the results.

Tests used:
Assay in all cases: glycan array binding signal (z-score within array); higher = stronger binding
Settings in all cases: glycan notation: IUPAC condensed, linker removed
[1] = target: Gal(b1-3)[Neu5Ac(a2-6)]GlcNAc(b1-4)Gal(b1-4)Glc
Summary of the method: (§1)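 Glycan array data were curated from 3228 arrays in the Consortium for Functional Glycomics database and kept only where the protein sequence was available. Glycan names were converted to IUPAC-condensed notation, and columns mapping to the same glycan were averaged. The binding signal is a within-array Z-score, averaged across arrays of the same protein sequence at different concentrations or buffers and across linkers. Negative Z-scores can be read as non-binding.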

[2] = target: Gal(b1-3)[Neu5Ac(a2-6)]GlcNAc(b1-6)Gal(b1-4)Glc
Summary of the method: as §1

[3] = target: Gal(b1-3)[Neu5Ac(b2-6)]GalNAc
Summary of the method: as §1

Gal(b1-4)Gal = target: Gal(b1-4)Gal
Summary of the method: as §1

[4] = target: Gal(b1-4)GalNAc(a1-3)[Fuc(a1-2)]Gal(b1-4)GlcNAc
Summary of the method: as §1

[5] = target: Gal(b1-4)GalNAc(b1-3)[Fuc(a1-2)]Gal(b1-4)GlcNAc
Summary of the method: as §1

Gal(b1-4)Glc = target: Gal(b1-4)Glc
Summary of the method: as §1

Gal(b1-4)Glc6S = target: Gal(b1-4)Glc6S
Summary of the method: as §1

Gal(b1-4)GlcNAc = target: Gal(b1-4)GlcNAc
Summary of the method: as §1

[6] = target: Gal(b1-4)GlcNAc(a1-6)Gal(b1-4)GlcNAc
Summary of the method: as §1

Gal(b1-4)GlcNAc(b1-2)Man = target: Gal(b1-4)GlcNAc(b1-2)Man
Summary of the method: as §1

[7] = target: Gal(b1-4)GlcNAc(b1-2)Man(a1-3)Man(b1-4)GlcNAc(b1-4)GlcNAc
Summary of the method: as §1

[8] = target: Gal(b1-4)GlcNAc(b1-2)Man(a1-3)[Gal(b1-4)GlcNAc(b1-2)Man(a1-6)]Man(b1-4)GlcNAc(b1-4)GlcNAc
Summary of the method: as §1

[9] = target: Gal(b1-4)GlcNAc(b1-2)Man(a1-3)[Gal(b1-4)GlcNAc(b1-2)Man(a1-6)]Man(b1-4)GlcNAc(b1-4)[Fuc(a1-6)]GlcNAc
Summary of the method: as §1

[10] = target: Gal(b1-4)GlcNAc(b1-2)Man(a1-3)[Gal(b1-4)GlcNAc(b1-2)Man(a1-6)][Gal(b1-4)GlcNAc(b1-4)]Man(b1-4)GlcNAc(b1-4)[Fuc(a1-6)]GlcNAc
Summary of the method: as §1

[11] = target: Gal(b1-4)GlcNAc(b1-2)Man(a1-3)[Gal(b1-4)GlcNAc(b1-2)Man(a1-6)][GlcNAc(b1-4)]Man(b1-4)GlcNAc(b1-4)[Fuc(a1-6)]GlcNAc
Summary of the method: as §1

[12] = target: Gal(b1-4)GlcNAc(b1-2)Man(a1-3)[GlcNAc(b1-2)Man(a1-6)]Man(b1-4)GlcNAc(b1-4)GlcNAc
Summary of the method: as §1

[13] = target: Gal(b1-4)GlcNAc(b1-2)Man(a1-3)[GlcNAc(b1-4)][Gal(b1-4)GlcNAc(b1-2)Man(a1-6)]Man(b1-4)GlcNAc(b1-4)GlcNAc
Summary of the method: as §1

[14] = target: Gal(b1-4)GlcNAc(b1-2)Man(a1-3)[Man(a1-6)]Man(b1-4)GlcNAc(b1-4)GlcNAc
Summary of the method: as §1

[15] = target: Gal(b1-4)GlcNAc(b1-2)Man(a1-6)Man(b1-4)GlcNAc(b1-4)GlcNAc
Summary of the method: as §1

[16] = target: Gal(b1-4)GlcNAc(b1-2)Man(a1-6)[GlcNAc(b1-2)Man(a1-3)]Man(b1-4)GlcNAc(b1-4)GlcNAc
Summary of the method: as §1

[17] = target: Gal(b1-4)GlcNAc(b1-2)Man(a1-6)[Man(a1-3)]Man(b1-4)GlcNAc(b1-4)GlcNAc
Summary of the method: as §1

[18] = target: Gal(b1-4)GlcNAc(b1-2)[Gal(b1-4)GlcNAc(b1-4)]Man(a1-3)[Gal(b1-4)GlcNAc(b1-2)Man(a1-6)]Man(b1-4)GlcNAc(b1-4)GlcNAc
Summary of the method: as §1

[19] = target: Gal(b1-4)GlcNAc(b1-2)[Gal(b1-4)GlcNAc(b1-4)]Man(a1-3)[Gal(b1-4)GlcNAc(b1-2)[Gal(b1-4)GlcNAc(b1-6)]Man(a1-6)]Man(b1-4)GlcNAc(b1-4)GlcNAc
Summary of the method: as §1

[20] = target: Gal(b1-4)GlcNAc(b1-2)[Gal(b1-4)GlcNAc(b1-4)]Man(a1-3)[GlcNAc(b1-4)][Gal(b1-4)GlcNAc(b1-2)Man(a1-6)]Man(b1-4)GlcNAc(b1-4)GlcNAc
Summary of the method: as §1

[21] = target: Gal(b1-4)GlcNAc(b1-2)[Gal(b1-4)GlcNAc(b1-4)]Man(a1-3)[GlcNAc(b1-4)][Gal(b1-4)GlcNAc(b1-2)[Gal(b1-4)GlcNAc(b1-6)]Man(a1-6)]Man(b1-4)GlcNAc(b1-4)GlcNAc
Summary of the method: as §1

[22] = target: Gal(b1-4)GlcNAc(b1-2)[Gal(b1-4)GlcNAc(b1-6)]Man(a1-6)[Gal(b1-4)GlcNAc(b1-2)Man(a1-3)]Man(b1-4)GlcNAc(b1-4)GlcNAc
Summary of the method: as §1

[23] = target: Gal(b1-4)GlcNAc(b1-2)[Gal(b1-4)GlcNAc(b1-6)]Man(a1-6)[Gal(b1-4)GlcNAc(b1-2)Man(a1-3)]Man(b1-4)GlcNAc(b1-4)[Fuc(a1-6)]GlcNAc
Summary of the method: as §1

[24] = target: Gal(b1-4)GlcNAc(b1-2)[Gal(b1-4)GlcNAc(b1-6)]Man(a1-6)[GlcNAc(b1-4)][Gal(b1-4)GlcNAc(b1-2)Man(a1-3)]Man(b1-4)GlcNAc(b1-4)GlcNAc
Summary of the method: as §1

[25] = target: Gal(b1-4)GlcNAc(b1-2)[Gal(b1-4)GlcNAc(b1-6)]Man(a1-6)[GlcNAc(b1-4)][Gal(b1-4)GlcNAc(b1-2)[Gal(b1-4)GlcNAc(b1-4)]Man(a1-3)]Man(b1-4)GlcNAc(b1-4)[Fuc(a1-6)]GlcNAc
Summary of the method: as §1

[26] = target: Gal(b1-4)GlcNAc(b1-3)Gal(b1-3)GalNAc
Summary of the method: as §1

[27] = target: Gal(b1-4)GlcNAc(b1-3)Gal(b1-3)GlcNAc
Summary of the method: as §1

[28] = target: Gal(b1-4)GlcNAc(b1-3)Gal(b1-4)Glc
Summary of the method: as §1

[29] = target: Gal(b1-4)GlcNAc(b1-3)Gal(b1-4)GlcNAc
Summary of the method: as §1

[30] = target: Gal(b1-4)GlcNAc(b1-3)Gal(b1-4)GlcNAc(b1-2)Man(a1-3)[Gal(b1-4)GlcNAc(b1-3)Gal(b1-4)GlcNAc(b1-2)Man(a1-6)]Man(b1-4)GlcNAc(b1-4)GlcNAc
Summary of the method: as §1

[31] = target: Gal(b1-4)GlcNAc(b1-3)Gal(b1-4)GlcNAc(b1-2)Man(a1-3)[Gal(b1-4)GlcNAc(b1-3)Gal(b1-4)GlcNAc(b1-2)Man(a1-6)]Man(b1-4)GlcNAc(b1-4)[Fuc(a1-6)]GlcNAc
Summary of the method: as §1

[32] = target: Gal(b1-4)GlcNAc(b1-3)Gal(b1-4)GlcNAc(b1-2)[Gal(b1-4)GlcNAc(b1-3)Gal(b1-4)GlcNAc(b1-6)]Man(a1-6)[Gal(b1-4)GlcNAc(b1-3)Gal(b1-4)GlcNAc(b1-2)Man(a1-3)]Man(b1-4)GlcNAc(b1-4)GlcNAc
Summary of the method: as §1

[33] = target: Gal(b1-4)GlcNAc(b1-3)Gal(b1-4)GlcNAc(b1-2)[Gal(b1-4)GlcNAc(b1-3)Gal(b1-4)GlcNAc(b1-6)]Man(a1-6)[Gal(b1-4)GlcNAc(b1-3)Gal(b1-4)GlcNAc(b1-2)Man(a1-3)]Man(b1-4)GlcNAc(b1-4)[Fuc(a1-6)]GlcNAc
Summary of the method: as §1

[34] = target: Gal(b1-4)GlcNAc(b1-3)Gal(b1-4)GlcNAc(b1-3)Gal(b1-4)GlcNAc
Summary of the method: as §1

[35] = target: Gal(b1-4)GlcNAc(b1-3)Gal(b1-4)GlcNAc(b1-3)Gal(b1-4)GlcNAc(b1-2)Man(a1-3)[Gal(b1-4)GlcNAc(b1-3)Gal(b1-4)GlcNAc(b1-3)Gal(b1-4)GlcNAc(b1-2)Man(a1-6)]Man(b1-4)GlcNAc(b1-4)GlcNAc
Summary of the method: as §1

[36] = target: Gal(b1-4)GlcNAc(b1-3)Gal(b1-4)GlcNAc(b1-3)Gal(b1-4)GlcNAc(b1-2)Man(a1-3)[Gal(b1-4)GlcNAc(b1-3)Gal(b1-4)GlcNAc(b1-3)Gal(b1-4)GlcNAc(b1-2)Man(a1-6)]Man(b1-4)GlcNAc(b1-4)[Fuc(a1-6)]GlcNAc
Summary of the method: as §1

[37] = target: Gal(b1-4)GlcNAc(b1-3)Gal(b1-4)GlcNAc(b1-3)Gal(b1-4)GlcNAc(b1-2)[Gal(b1-4)GlcNAc(b1-3)Gal(b1-4)GlcNAc(b1-3)Gal(b1-4)GlcNAc(b1-6)]Man(a1-6)[Gal(b1-4)GlcNAc(b1-3)Gal(b1-4)GlcNAc(b1-3)Gal(b1-4)GlcNAc(b1-2)Man(a1-3)]Man(b1-4)GlcNAc(b1-4)[Fuc(a1-6)]GlcNAc
Summary of the method: as §1

[38] = target: Gal(b1-4)GlcNAc(b1-3)Gal(b1-4)GlcNAc(b1-3)Gal(b1-4)GlcNAc(b1-3)Gal(b1-4)GlcNAc(b1-2)Man(a1-3)[Gal(b1-4)GlcNAc(b1-3)Gal(b1-4)GlcNAc(b1-3)Gal(b1-4)GlcNAc(b1-3)Gal(b1-4)GlcNAc(b1-2)Man(a1-6)]Man(b1-4)GlcNAc(b1-4)GlcNAc
Summary of the method: as §1

[39] = target: Gal(b1-4)GlcNAc(b1-3)Gal(b1-4)GlcNAc(b1-3)Gal(b1-4)GlcNAc(b1-3)Gal(b1-4)GlcNAc(b1-2)Man(a1-3)[Gal(b1-4)GlcNAc(b1-3)Gal(b1-4)GlcNAc(b1-3)Gal(b1-4)GlcNAc(b1-3)Gal(b1-4)GlcNAc(b1-2)Man(a1-6)]Man(b1-4)GlcNAc(b1-4)[Fuc(a1-6)]GlcNAc
Summary of the method: as §1

[40] = target: Gal(b1-4)GlcNAc(b1-3)Gal(b1-4)GlcNAc(b1-3)Gal(b1-4)GlcNAc(b1-3)Gal(b1-4)GlcNAc(b1-2)[Gal(b1-4)GlcNAc(b1-3)Gal(b1-4)GlcNAc(b1-3)Gal(b1-4)GlcNAc(b1-3)Gal(b1-4)GlcNAc(b1-6)]Man(a1-6)[Gal(b1-4)GlcNAc(b1-3)Gal(b1-4)GlcNAc(b1-3)Gal(b1-4)GlcNAc(b1-3)Gal(b1-4)GlcNAc(b1-2)Man(a1-3)]Man(b1-4)GlcNAc(b1-4)[Fuc(a1-6)]GlcNAc
Summary of the method: as §1

B1: WGA (Triticum vulgare) (protein)
chain: QRCGEQGSNMECPNNLCCSQYGYCGMGGDYCGKGCQNGACWTSKRCGSQAGGATCPNNHCCSQYGHCGFGAEYCGAGCQGGPCRADIKCGSQSGGKLCPNNLCCSQWGFCGLGSEFCGGGCQSGACSTDKPCGKDAGGRVCTNNYCCSKWGSCGIGPGYCGAGCQSGGCDAVFAGAITANSTLLAE
glycan array binding signal (z-score) [1]: -0.354
glycan array binding signal (z-score) [2]: -0.717
glycan array binding signal (z-score) [3]: -0.376
glycan array binding signal (z-score) (Gal(b1-4)Gal): -0.369
glycan array binding signal (z-score) [4]: 0.213
glycan array binding signal (z-score) [5]: -0.099
glycan array binding signal (z-score) (Gal(b1-4)Glc): -0.348
glycan array binding signal (z-score) (Gal(b1-4)Glc6S): -0.347
glycan array binding signal (z-score) (Gal(b1-4)GlcNAc): 0.012
glycan array binding signal (z-score) [6]: -0.339
glycan array binding signal (z-score) (Gal(b1-4)GlcNAc(b1-2)Man): -0.326
glycan array binding signal (z-score) [7]: 0.613
glycan array binding signal (z-score) [8]: 0.813
glycan array binding signal (z-score) [9]: -0.23
glycan array binding signal (z-score) [10]: -0.047
glycan array binding signal (z-score) [11]: -0.064
glycan array binding signal (z-score) [12]: -0.131
glycan array binding signal (z-score) [13]: -0.116
glycan array binding signal (z-score) [14]: -0.182
glycan array binding signal (z-score) [15]: -0.347
glycan array binding signal (z-score) [16]: -0.116
glycan array binding signal (z-score) [17]: -0.295
glycan array binding signal (z-score) [18]: -0.212
glycan array binding signal (z-score) [19]: -0.321
glycan array binding signal (z-score) [20]: -0.325
glycan array binding signal (z-score) [21]: -0.314
glycan array binding signal (z-score) [22]: -0.185
glycan array binding signal (z-score) [23]: -0.214
glycan array binding signal (z-score) [24]: -0.008
glycan array binding signal (z-score) [25]: -0.351
glycan array binding signal (z-score) [26]: -0.374
glycan array binding signal (z-score) [27]: -0.342
glycan array binding signal (z-score) [28]: -0.341
glycan array binding signal (z-score) [29]: 0.027
glycan array binding signal (z-score) [30]: 0.131
glycan array binding signal (z-score) [31]: -0.118
glycan array binding signal (z-score) [32]: -0.213
glycan array binding signal (z-score) [33]: -0.132
glycan array binding signal (z-score) [34]: -0.144
glycan array binding signal (z-score) [35]: 0.337
glycan array binding signal (z-score) [36]: -0.04
glycan array binding signal (z-score) [37]: 0.052
glycan array binding signal (z-score) [38]: 0.071
glycan array binding signal (z-score) [39]: 0.051
glycan array binding signal (z-score) [40]: 0.022
